From the RNAGym collection of RNA variant scans (doi:10.1093/nar/gkz1192)
The source gives no read counts; variants with many changes may rest on few reads.

B1: CPEB3 Ribozyme (parent)
chain: UAACAGGGGGCCACAGCAGAAGCGUUCACGUCGCAGCCCCUGUCAGAUUCUGGUGAAUCUGCGAAUUCUGCUGUAUAUCUC

Variants of: B1
Assay: self-cleavage, relative activity (ratio to wild type); higher = more cleavage; in vitro, sequencing
Summary of the method: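 After error-prone PCR and barcoding, CPEB3 ribozyme mutant libraries were transcribed with T7 RNA polymerase at 37°C for 5 hours, then given 15 min with DNase I before an EDTA stop, and they cleaved during both steps. Reverse transcription with template switching preceded Illumina sequencing. Relative activity divides a variant's cleaved/total read fraction by the unmutated ribozyme's. At least 5 reads were required per variant, and three batches were averaged.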

Variant	self-cleavage
A20U U26C G63A	0.17
A20U U51C C59A U74C U80G	0.13
A21G A45C G63C A64C	0.16
A20U U25C A45U U48C A64U U78C	0.07
A21G A28G U41A A56U U76G A77U	0.24
A21G A35G U67A U72A	0.39
A21G A35G U51A	1.32
A21G A35G A56G U60C U78C	0.24
A20U U41C G42A	0.37
A21G A64G U76A	0.38
A20U U31A A35G U43C A57G U76C	0.16
A21G A28U U31C U41C U78C	0.11
A20U U41A U43A	0.2
A21G A56U U72C U78C	0.24
A20U U25C A77G	0.08
A20U U25C A77U	0.21
A21G A57G A75G	0.42
A21C U51A U58C	0.15
A20U U31A A35U U60A	0.06
A21G A28G A35G G36A U41G	0.06
A20U U26C U51C C68A	0.13
A21G A45G U76C	0.17
A21C U31C U58C	0.21
A21G A28G C40A U51A U54G U67A U72A	0.05

Variant	self-cleavage
A21C U26A G33A G36U U41C	0.06
A21G A28U A35G	1.04
A20U U43A A77U	0.17
A21C A28U A57U	0.05
A20U U43A U74A	0.78
A20U U25C U41C A56G U72C	0.06
A21G A45U U49A	0.17
A21G A28G U60C A77U	0.28
A21C U26C A45U U69C U72C A77U U78C	0.05
A21G A28C U49C U72C	0.11
A20U U26C U69A	0.08
A20U U54C U72A	0.24
A21G A35U U41C U43C A45U	0.19
A20U U25A U67A	0.24
A20U U48C C71A U80C	0.08
A20U U60A U67C	0.12
A20U U25A U43A A47G U60C G63C	0.05
A20U U25C A28U G36A U72C	0.06
A20U U31G U41A A57G	0.13
A20U U26C U54A	0.24
A21C U26C U43C	0.37
A20U U48C U60C U74A	0.27
A20U U26A A35U U58C U66C	0.07
A20U U26A A35C U41A A64U	0.14

Variant	self-cleavage
A21G A35G U78C	1.12
A21G A45U A47G U49C	0.1
A21G A45U A75G	0.15
A20U U48C U72G U80C	0.23
A20U U41C U49A A64U U72C	0.19
A21C U25A U49C A64G	0.05
A20U U25C U41C A45C C62U	0.08
A20U U54C U74C	0.13
A20U U41G U43C U80C	0.3
A20U U41A U43C A45U	0.08
A21G A28G U41A U54A G63U	0.27
A20U U43C A56G U66A C68U	0.08
A20U U51C A64G	0.1
A21G A65C A77U	0.19
A21G A28G G42U U54C A56U U58C A64U	0.05
A21G C23A A28U U41C U69C	0.06
A21G A28G A56G U67A A75U	0.08
A21G A47U U51A A64U	0.06
A20U U26C U60C U67C U72C A75G	0.11
A20U U25C C38A U54A U69C U78C	0.03
A21C A35G U41C U60A	0.28
A21G A47G U48C U60C	0.08
A20U U25C U51C U54C	0.1
A21C U31A U76C	0.25

Variant	self-cleavage
A21C A64G A65G U69C A77G	0.05
A21G A35G G61A U69C U72A U78C	0.5
A20U U31C G42A A45G	0.14
A20U U51A U72C	0.27
A20U U25C U43C C59U U67C U80C	0.08
A21G A28G A35G	0.7
A21G A28C A47G C62U	0.12
A21G A47U A75U	0.44
A21G A28U U78C C79U	0.25
A20U U54G U60C U67C	0.12
A21G A47G U58C C62U	0.1
A21G A64G U74C A75G	0.52
A21G A56U U69A	0.05
A21G A64U A75G	0.16
A20U U43C A45U U48C G73U U78C	0.2
A21G A45C U60A U69C	0.12
A20U U26C A35U U48A U54C A65G	0.07
A20U U41G U72C U78C	0.33
A21G A57G C71A	0.14
A21G A35G U80C	1.24
A21C A64U U78C	0.07
A20U U60C U69C	0.11
A20U U41C C79G	0.45
A20U U25C A28U U66C U80A	0.07

Variant	self-cleavage
A21G A45U U58C A65G	0.05
A21G A47G A56U A57C C62U	0.08
A21G A45G U72C	0.61
A21G A45G U72G	0.06
A20U U31C A64C A65G	0.5
A20U U31C U51C U54C	0.18
A21G A47G U49C A57G U80A	0.06
A21G A47G A56C A57U	0.06
A21G A47G U51C U78C	0.25
A20U U31G A45C U67C	0.03
A20U U51A A65G U66C U69C	0.13
A21C A28G G30U A64G	0.05
A21G C23A U78C	0.18
A20U U26C U51C U80A	0.05
A21G A28G U48C A77U	0.56
A21G A28G A35G U48C U58G	0.47
A20U U31C U51C	0.14
A21C U54A A64U U72C	0.45
A21G A35G A45G U74A U80C	1.2
A20U U43C U48C	0.3
A21C G30A U41C	0.23
A21G A28C C62U U78C	0.07
A20U U60C G70C	0.13
A21G A45U A56U U69C	0.08

Variant	self-cleavage
A20U U69A U72G A75U U80C	0.1
A21C A28U A47C U60C U74G	0.06
A21G A35C C44A	0.23
A20U U58C A64G	0.58
A21C A57U U69C	0.32
A20U U43C A57G G61A	0.2
A20U U31C C32G C37G U43A A64U	0.11
A20U U25A U41C	0.27
A20U U49C U74C	0.07
A21C U31C U48C U51C A64G U69C U72C	0.08
A21G A45C A47G A56U G63A U72C	0.05
A20U U25A G63C	0.18
A21C U25G U31A A45G U72C	0.23
A21G A28U C39A A45U A56G	0.13
A21G A45G U67A	0.19
A21G A57G U72A U76C	0.4
A21G A45G G61A U76C	0.44
A21C U25C U51C	0.25
A20U U41G A56G U58C U80A	0.09
A21G A28C G30A U60A	0.18
A21G A56G A57U U67C U69C	0.07
A21G A28G U67C U74C	0.13
A20U U31A A45U A47G U80A	0.18
A20U U31G U41C A64G U74C U80C	0.22

Variant	self-cleavage
A21G A28U U31C U41C U51C A57G U67C	0.15
A21G A45U U76A	0.51
A21G A47G U72C	0.66
A21G A56G U74C	1.02
A21G A35G G36A G52C A56G	0.65
A21G A35G U48C C71G U74C	0.12
A21G A56U U58C	0.35
A21G A35G U43C A45U A56G G63U U80C	0.28
A21G A57G U78C	0.28
A21G A35G U41C	1.26
A21G A57G U80C	0.75
A21G A45G U49C U67A	0.24
A21G A35U U49A U51A A77U	0.06
A21G A35G U41A A57G	0.29
A21C U26C G42A	0.06
A21G A35G C68U	0.95
A20U U26C U43A U60C	0.18
A20U U25A U31A	0.15
A21G A56U U60A	0.23
A21G A45G U48C G52U A56G A57G U58C	0.07
A21G A35U U80C	0.34
A21C U26A G36U U41C U76C	0.05
A20U U54C A56G	0.3
